Screen size: about 52,000 compounds; about 1,700 (3.3%) were called active. Rule as the data show it: active = survival mostly below about 52% (no sharp cut-off); inactive = mostly above about 56%. Some of the results follow.
Tested on: Wild type
Test: S. aureus survival, RN4220 and DeltatarO strains – OD600, teichoic acid synthesis inhibitors, primary screen (AID 463173)
Conditions: S. aureus RN4220 wild type/DeltatarO growth, OD600, 18 h, active compounds read low, screened at 18.75 µg/mL (by protocol)

Row | Compound | survival
1 | Cc1ccc2oc(C(=O)Nc3sc4c(c3C(=O)NCC3CCCO3)CCC4)cc(=O)c2c1 (stereo not drawn) | inactive: 82%
2 | COc1cc(OC)c(C2CC(=O)Nc3ccc4ccccc4c32)cc1OC (stereo not drawn) | inactive: 127%
3 | COC(=O)c1ccccc1NC(=O)c1nc(-c2ccc(C)cc2)n2c1CCCCC2 | inactive: 86%
4 | O=C(CN1C(=O)CSC1=O)NCc1ccccc1 | inactive: 106%
5 | CC(NC(=O)c1cc2c(=O)n3ccccc3nc2n(C(C)C)c1=N)c1ccccc1 (stereo not drawn) | inactive: 76%
6 | CC(NC(=O)Cn1c(=O)oc2cc(S(=O)(=O)N3CCCCCC3)ccc21)c1ccccc1 (stereo not drawn) | inactive: 93%
7 | Cc1ccc(CCNS(=O)(=O)c2ccc3c(c2)C(C(C)C)C(=O)N3)cc1 (stereo not drawn) | inactive: 136%
8 | COc1cc(NC(=O)CN2C(=O)CCc3cc(Br)ccc32)cc(OC)c1OC | inactive: 75%
9 | Cc1cccc(OC(=O)CSc2nnc(-c3ccc4c(c3)OCO4)o2)c1C | inactive: 80%
10 | Cc1ccc(C2=NN(CC(=O)NCCc3ccccc3)C(=O)CC2)cc1 | inactive: 69%
11 | COc1cccc(Cn2c(=O)n(CC3CCC(C(=O)NC(C)C)CC3)c(=O)c3sccc32)c1 (stereo not drawn) | inactive: 75%
12 | Cc1cn(C)c(CC(=O)NCc2ccc(Cl)cc2)c1C(=O)O | inactive: 66%
13 | CC(=O)N1c2ccccc2C(=O)C1N1CCN(c2cccc(Cl)c2)CC1 (stereo not drawn) | inactive: 73%
14 | Cc1cccc(-c2noc(-c3cc(C(C)C)[nH]n3)n2)c1 | inactive: 99%
15 | Nc1ccccc1-c1nc2ccccc2s1 | inactive: 112%
16 | COc1ccccc1NC(=O)CC(C)n1nc(C)cc1C (stereo not drawn) | inactive: 76%
17 | CCOc1ccc(C2c3c(-c4cc(C)ccc4O)n[nH]c3C(=O)N2Cc2cccnc2)cc1OCC (stereo not drawn) | inactive: 100%
18 | Cc1ccc2c(=O)c(C(=O)c3cccc(Cl)c3)cn(CC(=O)NC3CCCCC3)c2n1 | inactive: 126%
19 | CCOC(=O)c1ccc(NC(=O)CSc2nc3c(c(=O)[nH]2)CN(Cc2ccccc2)CC3)cc1 | inactive: 75%
20 | COc1ccc(OC)c(CCNC(=O)CCCn2c(=O)c3cccn3c3ccc(F)cc32)c1 | inactive: 101%

Row | Compound | survival
21 | Cc1cc(F)ccc1NC(=O)CCS(=O)(=O)c1cc2c(cc1C)NC(=O)CO2 | inactive: 95%
22 | COc1ccccc1Nc1ncc2c(n1)CCN(Cc1ccc(C)s1)C2 | inactive: 59%
23 | COc1ccc(-n2nc3c(N4CCC(C(=O)NCc5ccccc5C)CC4)nnc(C)c3c2C)cc1 | inactive: 138%
24 | CCOC(=O)N1CCC(NC(=O)c2c(C)nn(-c3cccc(C)c3)c2-n2cccc2)CC1 | inactive: 85%
25 | Cc1ccc(N(CC(=O)N2CCN(c3ccc(F)cc3)CC2)S(=O)(=O)c2c(C)noc2C)cc1 | inactive: 75%
26 | CC(C)(C)C(=O)NCCc1nc2ccccc2n1CCCCOc1ccccc1 | inactive: 79%
27 | O=S(=O)(NCc1ccc(F)cc1)c1ccc(N2CCCCS2(=O)=O)cc1 | inactive: 95%
28 | COc1cccc(CNC(=O)Cn2ncc3c(=O)oc4ccccc4c32)c1 | inactive: 128%
29 | Cc1ccc(CSc2cn(CC(=O)N3CCCCCC3)c3ccccc23)cc1 | inactive: 88%
30 | CCOc1ccccc1CNCCCSc1nnnn1C | inactive: 84%
31 | O=C(CC1CCCCC1)NCC1CCCO1 (stereo not drawn) | inactive: 108%
32 | CCCN(Cc1cc2cccc(C)c2[nH]c1=O)C(=O)c1cccc(Cl)c1 | inactive: 94%
33 | CCN1CCN(Cc2c(C)[nH]c3c(C)cc(C)cc3c2=O)CC1 | inactive: 105%
34 | Cc1ccc(Cl)cc1NC(=O)Cn1c(=O)cc(C)c2c(C)nn(C)c21 | inactive: 132%
35 | Cc1cc(C)c(S(=O)(=O)Nc2ccc3oc(C)c(C(=O)OC(C)C)c3c2)cc1C | inactive: 49%
36 | Cc1oc(-c2cccc(Cl)c2)nc1CN1CCC(C(=O)NC(C)C)CC1 | inactive: 92%
37 | Cc1ccc(CNC(=O)CCNS(=O)(=O)c2ccc3c(c2)oc(=O)n3C)cc1 | inactive: 129%
38 | Cc1ccc(-n2nc3cc(C)c(NC(=O)c4ccc(-c5ccccc5)o4)cc3n2)cc1 | inactive: 71%
39 | COc1cccc(C2CC(=O)Nc3c2c(=O)n(C)c2nc4ccccc4n32)c1OC (stereo not drawn) | inactive: 67%
40 | O=C(CCn1c(=O)c2sccc2n(Cc2ccc(F)cc2)c1=O)NCc1ccc2c(c1)OCO2 | inactive: 89%

Row | Compound | survival
41 | COc1cccc(Nc2nnc(-c3cc4ccc(O)cc4oc3=O)s2)c1 | inactive: 80%
42 | CCOc1ccc(NC(=O)Cn2c(=O)n(CCc3ccccc3)c(=O)c3c4c(sc32)CCCC4)cc1 | inactive: 90%
43 | Cc1ccc(NC(=O)CC2Oc3ccc(C)cc3NC2=O)c(C)c1 (stereo not drawn) | inactive: 79%
44 | Cc1ccc(CSc2c(C)cnc3c2c(=O)n(C)c(=O)n3C)cc1 | inactive: 77%
45 | CC(=O)c1ccc(NC(=O)Cn2nc(C(F)(F)F)c3c2CCC3)cc1 | inactive: 66%
46 | COc1cccc2sc(NC(=O)c3ccc4c(c3)OCCO4)nc12 | inactive: 79%
47 | Cc1ccc(Cl)cc1N1CCN(C(=O)Cn2cnc3onc(-c4ccc(F)cc4)c3c2=O)CC1 | inactive: 70%
48 | CCc1nc2ccc(C(=O)N3CCN(c4ccccc4F)CC3)cc2nc1CC | inactive: 68%
49 | O=C(Cn1ncc2c3ccccc3n(Cc3ccccc3)c2c1=O)NCc1cccs1 | inactive: 98%
50 | CCN(CC)CCNC(=O)CCn1c(=O)c2cccn2c2cccnc21 | inactive: 90%
51 | Cc1ccc2nc(-c3ccc(NC(=O)Cc4ccccc4)cc3)sc2c1 | inactive: 90%
52 | Nc1nc(CC(=O)NN=C2CCCCCC2)cs1 | inactive: 101%
53 | CCCCNC(=O)CCC1N=C2c3ccccc3N=C(SCC(=O)NCCc3ccc(OC)c(OC)c3)N2C1=O (stereo not drawn) | inactive: 75%
54 | COc1ccc(OC)c(-c2cc(C(=O)Nc3ccc(C)c(C)c3)no2)c1 | active: -9%
55 | O=C(CSc1nc2ccsc2c(=O)n1Cc1ccc(F)cc1)NCc1ccc(Cl)cc1 | inactive: 81%
56 | CC1=C(C(=O)Nc2ccc(C)cc2C)C(c2ccccc2)n2nc(SCC(=O)c3ccc(C)cc3)nc2N1 (stereo not drawn) | inactive: 136%
57 | Cc1cc(Nc2ccc(Br)cc2)n2nc(-c3ccccc3C)nc2n1 | inactive: 62%
58 | CN1c2ccc(Cl)cc2-c2nc(SCC(=O)NCc3ccc(F)cc3)ncc2S1(=O)=O | inactive: 121%
